Each structure is given as a SMILES string. Hit rate of the full screen: of about 150,000 compounds, about 540 (0.36%) showed an effect of 50% or more. The list shows a part of the results.

In this assay the test system is Plasmodium falciparum. As to the kind of experiment: Primary screen in NF54 nanoGlo assay, in single point, at 2uM, 72h; a lower Z score goes with more inhibition. Format: functional, Erythrocyte. The conditions noted are these: timepoint 72 hour.
As for `Cc1ccc(-c2nc(C(=O)NCc3ccc(Cl)cc3)no2)cc1`, the “% Inhibition” value was 12% and the Z score is given as -1.07.

In the case of `C=C[C@H]1CC[C@@]2(c3ccccc3)CC(=O)N(Cc3ccccc3)[C@@H]12`, the “% Inhibition” value was -43% and the Z score turned out to be 5.02.

As for `Cc1nc(N2CCC(N[C@@H]3COC4(CCCC4)C3)CC2)c2ccsc2n1`, the “% Inhibition” value is -2% and the Z score is on record as 0.35.

In the case of `Cn1nccc1CCN(CCO)Cc1cccc(Br)c1`, the “% Inhibition” value came out at 1% and the Z score is -0.14.

Regarding `CCOC(=O)C1CCN(C(=O)c2ccc(-n3cccn3)nn2)CC1`, the “% Inhibition” value is -10% and the Z score is given as 1.88.

Consider `CC1CCC(NC(=O)COCC(=O)NC2CCC(C)CC2)CC1` (stereo unspecified), for which the “% Inhibition” value is recorded as -13% and the Z score is reported as 1.2.

As for `O=C1CO[C@H]2CCN(S(=O)(=O)CCc3cccc(Cl)c3)C[C@@H]2N1`, the “% Inhibition” value is reported as 17% and the Z score is -2.01.

Regarding `COc1ccc(C(=O)N2c3ncnn3C(c3ccccc3)CC2C)cc1` (stereo unspecified), the “% Inhibition” value was found to be 33% and the Z score is reported as -3.76.

Turning to `CCCN1CCC[C@H](Nc2ccncc2F)C1`, the “% Inhibition” value is -10% and the Z score was 1.86.

Take `COc1cccc(S(=O)(=O)N2CCc3[nH]cnc3C2)c1`: the “% Inhibition” value is -13% and the Z score was 1.49.

On to `CNC(=O)Cc1ccc(Cl)cc1Cl`, for which the “% Inhibition” value is -9% and the Z score is recorded as 1.16.

`COc1ccc(-c2ccc(CN3CCN(C)CC3)cn2)cc1C`: the “% Inhibition” value came out at 5% and the Z score is given as -0.7.

Consider `Cc1ncc2c(n1)CC[C@H](NC(=O)c1ccc3c(c1)CC(C)(C)O3)C2`, for which the “% Inhibition” value is listed as 30% and the Z score is -3.44.

On to `O=C(c1noc2c1CCCC2)N1CCN(c2ccc(-n3cncn3)nn2)CC1`, for which the “% Inhibition” value is recorded as 21% and the Z score is on record as -2.61.

On to `CCC(C)N(Cc1ccsc1)CC(O)COCC(C)C` (stereo unspecified), for which the “% Inhibition” value came to 3% and the Z score is -0.41.

On to `COc1cccc(CNC(=O)CCc2ccc3c(ccn3C)c2)c1`, for which the “% Inhibition” value is listed as -12% and the Z score turned out to be 1.37.

Regarding `Cc1[nH]c(=O)c(C(=O)N2CCN([C@H]3CCCC[C@@H]3O)CC2)c(C)c1Cl`, the “% Inhibition” value was -20% and the Z score turned out to be 2.74.

On to `CC(=O)Nc1c(-c2ccccn2)nsc1C(=O)NCc1cccc(Cl)c1`, for which the “% Inhibition” value is listed as -12% and the Z score is recorded as 2.11.

Turning to `CO[C@@H](C)c1nc(C2CCOCC2)nn1Cc1ccc2c(c1)OCO2`, the “% Inhibition” value is recorded as -8% and the Z score stood at 1.1.

On to `CC(C(=O)N1CC(C(C)C)c2ccccc21)c1cnccn1` (stereo unspecified), for which the “% Inhibition” value is -2% and the Z score amounted to 0.26.

Regarding `C[C@H](O)CNC(=O)Cn1nc(-c2ccccc2)n(CCc2ccccc2)c1=O`, the “% Inhibition” value is -3% and the Z score is given as 0.56.

Take `CN1CC2(C1)CN(Cc1ccccc1)C[C@@H]1COCCN12`: the “% Inhibition” value is -14% and the Z score turned out to be 2.46.

Regarding `N#CC[C@]1(O)CCN(S(=O)(=O)c2c[nH]c3ncc(Br)cc23)C1`, the “% Inhibition” value is -4% and the Z score was 0.49.

For the compound `CCCN(CCC)c1cc(C)nc2nc(-c3ccccc3)nn12`, the “% Inhibition” value is recorded as -4% and the Z score is reported as 0.77.

As to `O=C1CC[C@@]2(CCCN(C(=O)CCn3cc(Cl)cn3)C2)CN1CCO`, the “% Inhibition” value is on record as -1% and the Z score was 0.21.

With `Cc1cc(C(=O)N[C@H](c2ccncc2)C2CC2)ncc1C(N)=O`, the “% Inhibition” value is reported as 8% and the Z score is given as -1.06.

For `Nc1ncccc1CN1CCC2(CCC(=O)N(CCc3ccncc3)C2)CC1`, the “% Inhibition” value was -8% and the Z score came out at 1.52.

`CO[C@H]1COC[C@@H]1NC(=O)c1ccccc1C#N`: the “% Inhibition” value is given as -6% and the Z score is on record as 0.73.

In the case of `CC1CCCC(NC(=O)c2cc(S(=O)(=O)N3CCCC3)c[nH]2)C1C` (stereo unspecified), the “% Inhibition” value is listed as -8% and the Z score is recorded as 0.77.

For the compound `Cc1nc(CNC(=O)c2ccc3c(c2)CN(CCc2ccncc2)C3=O)no1`, the “% Inhibition” value is 3% and the Z score is given as -0.43.

`O=S(=O)(CC1CCCC1)N[C@H]1COC[C@@H]1O`: the “% Inhibition” value is -10% and the Z score worked out at 1.35.

Take `NC(=O)CN1C[C@H](Nc2ccc(C(F)(F)F)cn2)[C@@H](C2CC2)C1`: the “% Inhibition” value stood at 5% and the Z score is reported as -0.7.

Turning to `O=C(c1ccccc1Cl)N1CCC[C@H](OCc2cc(F)cc(F)c2)C1`, the “% Inhibition” value is -9% and the Z score was determined as 1.45.

Turning to `N[C@@H]1CN(c2nc(C3CCCC3)ns2)C[C@H]1c1ccccc1`, the “% Inhibition” value is reported as 3% and the Z score is reported as -0.42.

`COCc1nc(-c2cccnc2)nn1C1CCCCC1`: the “% Inhibition” value was -15% and the Z score is reported as 2.12.

On to `CC(=O)N(c1nc(CNc2ccc(CC#N)cc2)cs1)C1CC1`, for which the “% Inhibition” value is -6% and the Z score is reported as 0.65.

For `OC1CCCCC1CCCNc1nnc(C(F)(F)F)s1` (stereo unspecified), the “% Inhibition” value is -19% and the Z score was 1.66.

For `C[C@H](NC(=O)CON=C(N)CN1CCN(c2ccccc2)CC1)c1ccc(F)cc1`, the “% Inhibition” value is given as -6% and the Z score was determined as 0.75.

Regarding `c1cc2occc2c(NCCc2cn3c(n2)CCCC3)n1`, the “% Inhibition” value was -15% and the Z score was 1.3.

Take `CN(C(=O)CC#N)C1CCCC1c1ccc(C(F)(F)F)cc1` (stereo unspecified): the “% Inhibition” value is on record as -15% and the Z score is reported as 1.76.

Turning to `C[C@H](c1ccccc1)c1cc(C(=O)N(C)Cc2ncc[nH]2)on1`, the “% Inhibition” value turned out to be 1% and the Z score is on record as -0.14.

On to `CC(=O)N(CCc1ccc(C)[n+]([O-])c1)c1ccccc1`, for which the “% Inhibition” value is given as -11% and the Z score is listed as 1.42.

Turning to `COc1cc(F)cc2sc(NC(=O)[C@@H](NC3CCOCC3)C(C)C)nc12`, the “% Inhibition” value is reported as -1% and the Z score is given as 0.13.

The term % Inhibition denotes the drop in the measured response relative to a control, in per cent.
